# Over roughly 4,500 sequences, “median log2 fold change of GCK-ALFA target abundance (FLAG IP / Myc IP barcode read proportion)” has its median near 0.078; the lowest 2% begin near -0.6. The list shows a part of the results.
# B1: GBRAP_52_6327 (protein)
# chain: SEAKVEALAKELVAAIKAGDEAKAKALADEAVETLTSEEILKLAELVSKAVSTEDYETKVRAAKVFDYLADLVIEKRGDEDTAAEILGIYARTMYAAEQA
# B2: GBRAP_106_2560 (protein)
# chain: SKLDELKAFLAETLAEAEAQVPAVVDAIVSRLGEDRAEAEAVARAHAIAYVVNKLKEKMKELGINNPELVKAVEDTLRANRDADLATRIAAAKAVLEAKF
# B3: GBRAP_52_6299 (protein)
# chain: MREEAKKIAEEMVEAKKAGDEEKLEKLIKELVEKKSKEFIELVAEELAKMAANSNEEEQDIIFEVMEKLADELIEGGYDEAFANDLLAKVAKAAYENELK
# B4: GBRAP_160_4316 (protein)
# chain: KEEYEKLKEEIDEIFDEAKALIEGQSPEERATIVRVAMGEVLLLVDESEAISDELEEKIAEIADEAEATVAANPDLTEDEVKALIDDARKKILELIEKEA
# B5: GBRAP_78_6620 (protein)
# chain: ELEELIDKAIEKLNEAAKLAAKIKTEEGQELLGELVDASSYLVEAEEKGGDKKELEEAKKEIEKALKIAKKLGDKELVKKLEEALKLVEEAIKKQEELEK
# B6: GBRAP_184_5287 (protein)
# chain: MVEHVEIEAETAAEAIAQVEAAAAEARARGAKLRLTLLLRDADVAGVIALFDKLKALRDEGVIESATLGLEREVTEEEADTILAAADAAGVRVVLAIRDE
# B7: GBRAP_39_5639 (protein)
# chain: SEEEEAEEEYSYLEALGAKLQVEEGISLEELLARQRAYARARFADDPELQALIDELEALAAEGDEMDKLALVGALALAERGESRETIRRHLELLILHLKS
# B8: GBRAP_35_5626 (protein)
# chain: NTDKEIAEAMVAVLEDTLLAVDEVPAETFLATAIRIAKAAIEVAKELKEDKENAKRILEAARKLLEAALERAEETGAPEETIEELKRLLKEVEELEKKLE
# B9: GBRAP_160_4152 (protein)
# chain: MEELEKLIKEIKEITEEAIKMMEGETKEEAKVIARVALGEIVLLVESSEAISEETQEKVGKIAREAEEYLKKNPDATVEEIKKKLKEATEKIIEIIKKEK
# B10: GBRAP_9_7118 (protein)
# chain: YEELIEKLKEVVLDAIEDLHLVIDKLTEEEKEKFKKEVEELKEELLKDKTLTPEEIKEKFLELLKKIYEEVKKIVDEEEAKLAEAIRLTAEEEIDEIVEE
# B11: GBRAP_52_5941 (protein)
# chain: SSSRLKEIAEELIKLALAGDEEGLRKKAREIAKTYSDEEILAIAKEIAKMAKEAPKEDLDAYFRLMEILTEELEKEGRSEELISEIEGLMAKAMYENELK
# B12: GBRAP_160_4492 (protein)
# chain: SEKLEKFKEEVKEIVEEAVEAILEEDTSGKLGIARAYAGEIVETALELGVVTEEEADELLKLAEEGMEKIVKAKEKGEEEMKKAAEELKKKLFEFAEKAA
# B13: GBRAP_186_5380 (protein)
# chain: REELEEREDKIIDELEAQGYTVIVVYLEGLSLEETKKAMERDADAVAALSKETGKKWALVVRIITKAEDVEELEKYAKELNEKYLAESGVVVRAAIESSD
# B14: GBRAP_78_6676 (protein)
# chain: KVEEELDKAAEHLSEAAKILNKMNTEEALDILGKVIDVLQTVVEAQFGEADLEDLEEALKTAEEALKEVKKIDTEEAKEAAKHLEKAIEHLKKAIELLKK
# B15: GBRAP_52_6086 (protein)
# chain: MEERLEALAREIAAAVAAGDREGALALIEEAIKELSVEEIRRLLRLAAERVAALGEDAHVLFVDLLDEAEDLMIKAGISEEDALLIVGDAEAALAKAVAA
# B16: GBRAP_52_6187 (protein)
# chain: MREELRRRVEEMLELVKAGREEEARELARRLVEELSEEELRLLVEVLAEVAAAAPLEDADAVMRLAEILAEAIEEAGKDEVLAEDLLAAAARALHAKELA
# B17: GBRAP_74_6529 (protein)
# chain: EEEALKKVKEAAEKGDLKGAIKILEENVDKLSPEKLVEALLIVLKLFEKQKETATDEEVDAVIDLIVKVESKVDDLLFPDETLKLIAEALALAVEREKAE
# B18: GBRAP_184_5353 (protein)
# chain: MVREVLIEAATVEEAIAQLRAAGAAAAAAGASLNVHISVPINTVAEAEALMAALAALAAAGVLPNVVGIDDVANDDAIIDTIVNGADAAGVRVVLGIEGE
# B19: GBRAP_45_5799 (protein)
# chain: SEEIEEALKKALEELNKAKELVEKTKWSNEETKKKVLEILNKIIKLLTENPYSLEAAEEAAKLAREALKLLLDDPDATAEAIEATLNALNYIEDLAELLK
# B20: GBRAP_128_3367 (protein)
# chain: LNEELLKKIRELVEEMIKSSVEETAKLMEEIVELINTMSKEEQEAAVEIILESLPKFSEEKLETIADVIRKNRSKLNPYTQNLLAEVEVEALNLAEEQRE
# B21: GBRAP_117_2588 (protein)
# chain: DPLLEAARARVQALADRVREALERMKTLSPEERKALYEELLRETEELLRELLSELDEETVDEIIDEVLAELDAETYFLFESLLAEAEERIREEERRRELE
# B22: GBRAP_52_6044 (protein)
# chain: MRERLRELAERLVALVKAGDLEGARALAREIAEELNDEELRGLAEELAELAREGDPEEAEAVLEAAEILADELIEAGHDEALADEIEARVAAAAYERELE
# B23: GBRAP_52_6115 (protein)
# chain: MYEELKAKVEELLALVKAGKLEEARKRAEELVKSINDEEVKILAEAVAEVAKEAAPEDLDAVWTLAEMIAEALEKAGKPEELVDYLLSKTAAALYERELA
# B24: GBRAP_160_4668 (protein)
# chain: SEALEALMAEIRAIMDEAVEMMEGESLEERVAVARVMTGEVILLLEESPLATDEVIDYADELGEELVAWLRAHPDATPEEVRARLEEALARLREKLERES
# B25: GBRAP_64_6487 (protein)
# chain: MEEIEKLLKETLKKAEELVKLLENSSEELQEKAKEILKLIKESEKASLEEAAELLNEALKKLNELLKDPRLTEEQKDKVAELLDLVSELLWLVVEEELEK
# B26: GBRAP_186_5374 (protein)
# chain: SEELEEKIDEIIDRLEKEGYRVIVVETITELTEEEKEAIERDAEAVGELAKETGQKIALVIPFIGSEEEIEEAKKFVEELNEKFLKEYGVKIELAGLVKE
# B27: GBRAP_52_6217 (protein)
# chain: SAARARALAEEIVATVQTEGVDAATELLIKLAKELSPEELKLVFDELVALAAQASAETAEALLEAALKAEDALIEAGVSEADVADFIAALAAVAVAKRAA
# B28: GBRAP_43_5738 (protein)
# chain: DKEVLDAAAEVALLALESEELSDETKIRIIKDFLEVFADSGLKGEELAKKAAELLDNYENKENVKKAIELAKELAKLNPEYKETFEAIAEFLKKKLKELE
# B29: GBRAP_53_6407 (protein)
# chain: SEEEIRRLIEEIRRLAEEATKADEERQLELARRIVEALKRLKEAGASDEELTALAVEVARELKEAGASDRTLVVLAQGMQELGLDDATAAVSELIVEDLE
# Molecular target: GABARAP, O95166
# Sequence (O95166 whole entry, the tested form may be a part): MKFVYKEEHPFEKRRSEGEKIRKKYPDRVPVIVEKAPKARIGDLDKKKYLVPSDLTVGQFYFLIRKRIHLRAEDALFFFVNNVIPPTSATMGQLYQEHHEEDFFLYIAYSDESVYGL
# Assay: median log2 fold change of GCK-ALFA target abundance (FLAG IP / Myc IP barcode read proportion) (log2 ratio); each designed protein is fused to an ALFA-tag nanobody in HEK293 cells to bring the named protein to FLAG-tagged glucokinase (GCK); Myc marks an untargeted standard; higher = target protein stabilised (more abundant)
# Details: target protein: 3xFLAG-MCP-GCK-ALFA reporter; HEK293 landing pad (RPLP)
# Outline: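 HEK293 landing-pad cells received a recombined binder library fused to the ALFA nanobody and were induced with 2 μg mL^−1 doxycycline, then transfected with a plasmid encoding a FLAG-tagged target and a Myc-tagged standard. Lysates were collected after 48 h for anti-FLAG and anti-Myc immunoprecipitation, and the circular RNA barcodes were reverse transcribed, amplified and sequenced. Target abundance for each binder is the median log2 ratio of FLAG to Myc barcode read proportions. Barcodes had to reach a proportion of at least 10^−7 in both replicates, each binder needed at least 3 barcodes per replicate, a pseudocount of 10^−6 was applied, and the two replicates were pooled.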
row,Binder,median log2 fold change
1,B1,0.00852
2,B2,0.125
3,B3,0.0937
4,B4,-0.0788
5,B5,0.289
6,B6,0.0214
7,B7,0.166
8,B8,-0.198
9,B9,-0.551
10,B10,0.193
11,B11,0.165
12,B12,0.178
13,B13,0.0753
14,B14,0.0941
15,B15,-0.626
16,B16,0.181
17,B17,0.287
18,B18,-0.0705
19,B19,0.13
20,B20,0.188
21,B21,-0.135
22,B22,-0.000521
23,B23,0.0864
24,B24,-0.374
25,B25,0.13
26,B26,-0.0728
27,B27,0.249
28,B28,-0.116
29,B29,0.205

# Source: the supplement of paper PMC12632987
